These are yes or no findings as the source states them, for the method shown. For some of these results: In cells and extracts the contact can be indirect. Some results given as binding are weak or reduced against the parent protein; the word gives no strength. For some of these results: Where a sequence is shown, tags or fusion partners need not be part of it.
Key:
Nbs1-(1–335)-GST (human) = Nbs1-(1–335)-GST (human) (UniProt O60934); assay: pull-down; GST pull-down from Sf21 insect cells co-infected with baculoviruses for the GST-tagged partner (bait) and the Flag-tagged partner; NETN buffer; immunoblotting
[1] = target: T1, GST-CtIP-12A-CDK (purified) (human) (UniProt Q99708); assay: pull-down; purified Nbs1(1–335) or Nbs1(1–335)-RRHK incubated with purified CtIP-WT or CtIP-12A-CDK coupled to glutathione agarose beads; Western blot with anti-His and anti-GST; both purified
T1 sequence: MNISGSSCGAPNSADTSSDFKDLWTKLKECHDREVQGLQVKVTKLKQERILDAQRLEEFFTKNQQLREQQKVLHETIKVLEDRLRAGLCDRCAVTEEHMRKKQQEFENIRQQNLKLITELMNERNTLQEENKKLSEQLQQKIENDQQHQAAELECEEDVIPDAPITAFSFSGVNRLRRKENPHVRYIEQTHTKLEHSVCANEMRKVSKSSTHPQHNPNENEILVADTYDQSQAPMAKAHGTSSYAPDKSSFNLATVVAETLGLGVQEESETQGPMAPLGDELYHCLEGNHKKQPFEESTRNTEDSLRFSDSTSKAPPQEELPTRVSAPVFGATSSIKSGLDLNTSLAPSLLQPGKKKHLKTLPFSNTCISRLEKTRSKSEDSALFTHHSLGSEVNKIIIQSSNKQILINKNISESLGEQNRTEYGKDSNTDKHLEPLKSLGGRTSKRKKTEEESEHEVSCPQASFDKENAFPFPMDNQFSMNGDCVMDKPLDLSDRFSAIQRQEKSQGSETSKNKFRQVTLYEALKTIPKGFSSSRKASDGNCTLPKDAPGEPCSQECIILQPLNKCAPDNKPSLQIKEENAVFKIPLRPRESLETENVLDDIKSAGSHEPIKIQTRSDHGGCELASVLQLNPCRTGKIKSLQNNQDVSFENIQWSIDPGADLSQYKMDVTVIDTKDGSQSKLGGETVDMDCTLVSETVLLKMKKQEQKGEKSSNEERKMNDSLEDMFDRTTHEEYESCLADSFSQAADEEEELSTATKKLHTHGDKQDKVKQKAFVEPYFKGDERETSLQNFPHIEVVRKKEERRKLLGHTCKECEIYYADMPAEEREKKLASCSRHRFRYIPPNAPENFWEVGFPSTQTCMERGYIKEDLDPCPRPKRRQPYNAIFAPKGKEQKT

Sequences of proteins named here, by UniProt entry; tags and fusion partners are left off. A change or cut given only in a name is not applied to a line headed by its entry. A line that says so, or that is headed by a name, gives the form on record, which may keep a tag or linker. Residues count along the entry.
Nbs1-(1–335)-GST (O60934, residues 1-335): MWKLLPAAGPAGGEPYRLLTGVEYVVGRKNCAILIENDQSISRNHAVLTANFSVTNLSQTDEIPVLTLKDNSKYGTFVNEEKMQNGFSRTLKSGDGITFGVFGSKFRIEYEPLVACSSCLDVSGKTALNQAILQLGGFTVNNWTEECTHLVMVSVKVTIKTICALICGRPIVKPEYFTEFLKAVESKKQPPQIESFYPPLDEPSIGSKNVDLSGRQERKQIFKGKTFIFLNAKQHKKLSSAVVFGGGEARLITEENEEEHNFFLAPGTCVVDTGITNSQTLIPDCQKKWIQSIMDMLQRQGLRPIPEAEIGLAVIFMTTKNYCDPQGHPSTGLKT
Flag-Nbs1 336-end (O60934, residues 336-754): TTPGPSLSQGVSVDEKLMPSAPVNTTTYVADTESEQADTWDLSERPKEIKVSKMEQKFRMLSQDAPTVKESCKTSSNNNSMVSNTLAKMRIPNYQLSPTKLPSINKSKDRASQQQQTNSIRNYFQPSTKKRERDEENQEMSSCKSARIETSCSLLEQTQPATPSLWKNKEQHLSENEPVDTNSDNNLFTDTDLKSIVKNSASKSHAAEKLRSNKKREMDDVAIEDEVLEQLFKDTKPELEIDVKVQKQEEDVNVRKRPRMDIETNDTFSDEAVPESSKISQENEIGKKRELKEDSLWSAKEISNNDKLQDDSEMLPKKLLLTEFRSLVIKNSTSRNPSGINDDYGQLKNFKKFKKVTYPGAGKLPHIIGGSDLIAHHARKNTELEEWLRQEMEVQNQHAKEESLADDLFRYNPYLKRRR
Nbs1-(1–335)-K160M-GST (O60934, form named): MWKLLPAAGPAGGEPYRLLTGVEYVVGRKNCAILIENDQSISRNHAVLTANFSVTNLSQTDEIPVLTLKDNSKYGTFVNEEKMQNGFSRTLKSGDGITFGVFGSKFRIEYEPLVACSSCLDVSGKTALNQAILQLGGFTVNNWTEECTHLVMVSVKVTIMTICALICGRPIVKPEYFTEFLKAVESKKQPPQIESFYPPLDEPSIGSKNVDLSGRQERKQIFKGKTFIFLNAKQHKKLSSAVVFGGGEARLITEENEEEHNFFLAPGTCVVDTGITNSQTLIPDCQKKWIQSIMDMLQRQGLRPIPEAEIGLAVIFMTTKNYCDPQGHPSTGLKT
Nbs1-(1–335)-R28A-GST (O60934, form named): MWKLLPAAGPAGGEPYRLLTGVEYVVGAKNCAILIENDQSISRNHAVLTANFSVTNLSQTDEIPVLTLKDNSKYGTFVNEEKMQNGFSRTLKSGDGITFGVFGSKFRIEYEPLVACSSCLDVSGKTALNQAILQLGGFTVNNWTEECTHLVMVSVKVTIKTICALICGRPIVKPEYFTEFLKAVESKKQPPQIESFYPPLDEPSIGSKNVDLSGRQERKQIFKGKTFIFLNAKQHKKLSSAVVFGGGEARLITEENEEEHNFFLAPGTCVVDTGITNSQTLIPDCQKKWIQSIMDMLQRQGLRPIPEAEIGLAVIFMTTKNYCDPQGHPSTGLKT
Nbs1-(1–335)-R28A/K160M-GST (O60934, form named): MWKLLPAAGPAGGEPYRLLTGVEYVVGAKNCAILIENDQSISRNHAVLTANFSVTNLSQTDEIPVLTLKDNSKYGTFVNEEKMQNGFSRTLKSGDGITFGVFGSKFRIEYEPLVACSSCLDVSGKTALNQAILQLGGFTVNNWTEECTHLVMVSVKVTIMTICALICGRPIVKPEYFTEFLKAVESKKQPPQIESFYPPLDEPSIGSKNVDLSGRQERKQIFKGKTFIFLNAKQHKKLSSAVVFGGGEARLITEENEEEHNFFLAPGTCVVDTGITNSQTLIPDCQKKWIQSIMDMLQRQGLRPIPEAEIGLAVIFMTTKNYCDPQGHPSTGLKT

GST-CtIP 462-end (human) = target: T2, GST-CtIP 462-end (human) (UniProt Q99708); assay: pull-down; GST pull-down from Sf21 insect cells co-infected with baculoviruses for the GST-tagged partner (bait) and the Flag-tagged partner; NETN buffer; immunoblotting
T2 sequence: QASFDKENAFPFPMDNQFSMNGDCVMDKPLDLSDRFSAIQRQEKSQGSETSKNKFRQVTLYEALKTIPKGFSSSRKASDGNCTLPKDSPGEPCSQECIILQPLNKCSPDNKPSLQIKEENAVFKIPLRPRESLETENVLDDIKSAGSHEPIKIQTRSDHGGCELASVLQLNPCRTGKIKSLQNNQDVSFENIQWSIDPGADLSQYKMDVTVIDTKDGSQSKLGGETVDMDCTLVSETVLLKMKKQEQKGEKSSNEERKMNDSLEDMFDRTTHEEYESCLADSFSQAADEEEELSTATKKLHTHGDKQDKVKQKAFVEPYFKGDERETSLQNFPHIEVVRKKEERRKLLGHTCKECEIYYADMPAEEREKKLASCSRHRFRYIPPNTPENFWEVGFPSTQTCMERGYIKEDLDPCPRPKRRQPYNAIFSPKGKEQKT

[2] = target: Nbs1-(1–335)-K160M-GST (human) (UniProt O60934); assay: as above
[3] = target: Nbs1-(1–335)-R28A-GST (human) (UniProt O60934); assay: as above
[4] = target: Nbs1-(1–335)-R28A/K160M-GST (human) (UniProt O60934); assay: as above

Substance	binding (Nbs1-(1–335)-GST (human))	also measured
CtIP-(200–600)-T315A/S347A (from UniProt Q99708 200-600) (domain or fragment)	binds	–
CtIP-(200–600) with all CDK sites mutated (7A+S327A) (from UniProt Q99708 200-600) (domain or fragment)	no binding	–
Purified Nbs1(1–335) (from UniProt O60934 1-335) (domain or fragment)	–	binding [1]: no binding
CtIP-(200–600) fragment containing the 7A-CDK mutation (from UniProt Q99708 200-600) (domain or fragment)	no binding	–
Flag-Nbs1 336-end (from UniProt O60934 336-754) (domain or fragment)	–	binding (GST-CtIP 462-end (human)): binds
CtIP-(200–600)-T245A/S276A/S347A (from UniProt Q99708 200-600) (domain or fragment)	binds	–
CtIP-(200–600) fragment containing the 5A-CDK mutation (from UniProt Q99708 200-600) (domain or fragment)	no binding	–

Continued, in another order:

binding (Nbs1-(1–335)-GST (human))	Substance	also measured
binds	CtIP-(200–600)-S549A/S568A (from UniProt Q99708 200-600) (domain or fragment)	–
binds	CtIP-(200–600)-S233A/S245A/S276A (from UniProt Q99708 200-600) (domain or fragment)	–
binds	Flag-CtIP 200–600 fragment (from UniProt Q99708 200-600) (domain or fragment)	binding [2]: binds; binding [3]: binds; binding [4]: no binding

— PMC3585124
